From PubChem BioAssay AID2546 (National Center for Advancing Translational Sciences (NCATS), 2010)
Out of some 310,000 compounds screened, about 11,000 (3.5%) were called active. Inconclusive results, whose numbers are uncertain, are shown with a selection of clear calls. The call rests on the fitted dose curve; in most records, active means well fitted inhibition curve with a large enough effect; inconclusive means small, poorly fitted or top-dose-only effect, or effect the other way; inactive means flat fitted curve, though single readings scatter. Potencies of inconclusive entries are left out as doubtful fits.

Assay: VP16 counterscreen qHTS for inhibitors of ROR gamma transcriptional activity;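 further: Gal4-VP16 expression switched on by copper sulfate through the metallothionein promoter; nearly all actives have a fitted effect of over 50% in size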
Conditions: Drosophila S2 Gal4-VP16 UAS-luciferase, luminescence, 20 h; activity, negative = inhibition: at 53.6 µM (top of the series)
On the % scale 0 is the no-effect control and ±100 the full control effect; potency means the concentration at half of the fitted maximal effect; tags describe the fitted curve by direction and shape.

SMILES	Potency	activity, negative = inhibition
CCCc1cc(-c2nc(-c3ccc(C)cc3)cs2)ccn1	inconclusive [inhibitor, single point]	
N/C(=N\OC(=O)COc1ccc(Cl)cc1Cl)c1ccncc1	inactive	
CCOc1ccc(C(=O)NC(=S)Nc2ccccc2OC)cc1[N+](=O)[O-]	inconclusive [inhibitor, partial curve]	
O=C(COc1ccc(-c2ccccc2)cc1)N/N=C/c1ccccc1Br	inactive	
O=C(CCCC1=NS(=O)(=O)c2ccccc2N1)N1CCN(c2ccccc2)CC1	inactive	
CC(C)(C)C1CCc2c(sc(N)c2C(N)=O)C1 (centres undefined)	active: 15.8 µM	
COc1ccc(N(C(=O)c2cccc([N+](=O)[O-])c2)S(=O)(=O)c2ccc3c(c2)n(C)c(=O)n3C)cc1	inconclusive [inhibitor, single point]	
COc1ccc(SCC(Cc2ccccc2)N2CCN(CC(C)C)CCC2=O)cc1 (centres undefined)	inconclusive [inhibitor, single point]	
Cc1cc(C(=O)Cn2nc(C(=O)O)c3ccccc3c2=O)c(C)n1-c1ccccc1	inconclusive [inhibitor, single point]	
COc1ccc(C(=O)C2CCCN(C3Cc4ccccc4C3)C2)c(OC)c1 (centres undefined)	inactive	
Cc1ccc(NC(=O)Cn2cnc3ccccc32)cc1C	inconclusive [inhibitor, single point]	
COCCNc1cc(C)nc2c(-c3ccccc3OC)c(C)nn12	inactive	
Fc1ccc(C(c2ccc(F)cc2)N2CCN(C/C=C/c3ccccc3)CC2)cc1	inconclusive [inhibitor, single point]	
CCCn1c(N)c(C(=O)CSc2nc(C)cs2)c(=O)[nH]c1=O	inactive	
CCOC(=O)c1ccc(NC(=O)c2nc[nH]c2C(=O)N[C@H](C)c2ccccc2)cc1	active: 7.08 µM	
Nc1ccccc1C(=O)NNC1=C(C(=O)C(F)(F)F)CCC1	inconclusive [inhibitor, single point]	
O=C(O)c1cc(N/N=C/c2ccncc2)ccc1Cl	inactive	
CC(C)NC(=O)c1onc(CSc2ccc(C(C)C)cc2)c1C(=O)O	active: 20 µM	
COc1ccc(/C=N/NC(N)=S)cc1	inconclusive [inhibitor, partial curve]	
Cc1ccc(O)c(Nc2c3ccccc3nc3ccccc23)c1	inconclusive [inhibitor, partial curve]	
CC(C)C[C@H](NC(=O)c1[nH]cnc1C(=O)N[C@@H](C)C(=O)OC(C)(C)C)C(=O)OC(C)(C)C	inconclusive [inhibitor, single point]	
COc1ccc(NC(=O)C2CC(=O)n3cnnc3S2)cc1 (centres undefined)	inconclusive [inhibitor, single point]	
CCCn1c(-c2ccc(F)cc2)nc2c(NCCCN(CCO)CCO)nc(C)nc21	inactive	
O=C(Nc1cccc(Cl)c1)N1CCCCCC1	inactive	
Clc1ccc2c(NCc3cccs3)ncnc2c1	inconclusive [inhibitor, single point]	

SMILES	Potency	activity, negative = inhibition
O=c1cc(N2CCCCC2)c(-c2ccccc2)nn1Cc1ccccc1Cl	inactive	
COc1cc2nc(=S)n3[nH]c(CCn4nc(C)cc4C)nc3c2cc1OC	active: 0.0891 µM	
Cc1ccc(OCC(=O)N/N=C\c2cn(C)c3ccccc23)c([N+](=O)[O-])c1	inconclusive [inhibitor, single point]	
Clc1ccc(-n2ncc3c(NCC4CCCO4)ncnc32)cc1 (centres undefined)	inactive	
CCN1C(=S)N[C@@H](CCc2ccccc2)[C@H](C(=O)OC)[C@H]1C	inconclusive [inhibitor, single point]	
COc1ccc(OC)c(Nc2nc(N)nc(CCl)n2)c1	inconclusive [inhibitor, single point]	
CC(C)CC(=O)NC(=S)Nc1cccc(NC(=O)c2ccccc2)c1	inconclusive [inhibitor, single point]	
O=C(c1cnn2c(C(F)(F)F)cc(-c3ccccc3)nc12)N1CCCCC1c1cccnc1 (centres undefined)		inactive: -3.59% [at 10 µM]
O=[N+]([O-])c1ccc(-c2ccc(S(=O)(=O)NCCN3CCCC3)cc2)cc1	inconclusive [inhibitor, single point]	
Cc1csc(NC(=O)c2ccc(Cn3nc(C)c(Br)c3C)o2)n1	inconclusive [inhibitor, single point]	
COc1cccc(CC(=O)Nn2c(C)nc3ccccc3c2=O)c1	inactive	
O=C(Nc1ccc(Cl)c(Cl)c1)c1cccc(S(=O)(=O)NCc2cccnc2)c1	inconclusive [inhibitor, single point]	
COc1ccc(C(=O)NNC(=O)C(=O)/C=C(\O)c2ccc(C)cc2)cc1	inconclusive [inhibitor, single point]	
COc1ccc(NC(=O)CN2C(=O)CSC(C)C2=O)cc1 (centres undefined)	inconclusive [activator, full curve]	
CC(C)C(=O)Nc1cccc(NC(=S)NC(=O)c2ccc(Cl)cc2)c1	inconclusive [inhibitor, single point]	
CNc1ccccc1C(C)(C)c1cc(-c2cccc([N+](=O)[O-])c2)no1	inactive	
Cc1c(C(=O)NC2CCOC2)oc2c(F)cccc12 (centres undefined)	inconclusive [inhibitor, single point]	
Cc1ccsc1/C=N/n1c(-c2cc(-c3ccccc3)n[nH]2)n[nH]c1=S	inconclusive [inhibitor, partial curve]	
NC(=S)N/N=C1\CCOc2ccc(F)cc21	active: 22.4 µM	
Cc1ccc2nsnc2c1NC(=O)c1ccc([N+](=O)[O-])cc1	inconclusive [inhibitor, single point]	
Cc1cccc(CS(=O)(=O)Cc2ccc(C(=O)NCCN3CCCCC3C)o2)c1 (centres undefined)	inactive	
O=C(NCCc1c[nH]c2ccccc12)C(=O)NCC1OCCCN1S(=O)(=O)c1cc(F)ccc1F (centres undefined)	inactive	
COc1ccc(CNC(=O)CS(=O)CC(=O)O)cc1OC (centres undefined)	inactive	
Cc1ccc(NC(=O)Cn2nc(-c3ccccc3)nc2-c2ccccc2)c(C)c1	inconclusive [inhibitor, single point]	
COc1cccc(NC(=S)/C(=C(\[O-])c2ccc(C)c([N+](=O)[O-])c2)[n+]2ccccc2)c1	inconclusive [inhibitor, single point]	

SMILES	Potency	activity, negative = inhibition
Cc1cc2nc(SCC(=O)Nc3nonc3C)c3c(c2cc1C)CCCC3	inactive	
CC1(C)CC(=O)C2=C(C1)c1c(ccc3ccccc13)NC2c1cc([N+](=O)[O-])cc([N+](=O)[O-])c1O (centres undefined)	inconclusive [inhibitor, partial curve]	
COc1cc([N+](=O)[O-])cc2sc(NC(=O)c3c(F)cccc3F)nc12	inconclusive [inhibitor, partial curve, poor fit]	
Nc1nc(N)c2nc(CNc3ccc(C(=O)NC(CCC(=O)O)C(=O)O)cc3)cnc2n1 (centres undefined)	inactive	
CN(C)NC(=S)Nc1cccc(Cl)c1	active: 7.08 µM	
COc1cccc(COc2cc3ccccc3nc2C)c1	active: 5.01 µM	
COC(=O)Cn1ccc2cc(S(=O)(=O)N3CCCCC3)ccc21	inactive	
N#Cc1ccc(/C=C\c2nccc3c2[nH]c2ccccc23)cc1	active: 2.24 µM	
CCc1nc(N2CCN(C(C)=O)CC2)c2c3c(sc2n1)CCCC3	inconclusive [activator, single point]	
Cc1ccc(S(=O)(=O)n2ccc3c(OCCOCCSCC(NC(=O)OC(C)(C)C)C(=O)O)cccc32)cc1 (centres undefined)	inactive	
CC(=O)c1sc(=S)n(-c2ccccc2)c1C	inactive	
NS(=O)(=O)c1ccc(CCNc2nc3c(-c4cccc(F)c4)nnn3c3ccccc23)cc1	inconclusive [inhibitor, single point]	
CC(C)c1ccccc1NC(=S)N(C)C	inconclusive [inhibitor, single point]	
CCOC(=O)CC(C)(C)/C(C)=N/Nc1ccc([N+](=O)[O-])cc1[N+](=O)[O-]	inconclusive [inhibitor, single point]	
Cc1[nH]nc2nc(SCC(=O)NC3CCCCC3)n(-c3ccc(Br)cc3)c(=N)c12	inconclusive [inhibitor, single point]	
CCOC(=O)c1c(NC(=O)c2nn(C)cc2[N+](=O)[O-])sc(C)c1C	inactive	
Cc1ccc(NC(=O)CSCc2cc(=O)n3ccsc3n2)cc1	inactive	
O=C(CSc1nc(-c2ccccc2F)nc2nc[nH]c12)Nc1c(Cl)cc(Cl)cc1Cl	inconclusive [activator, single point]	
CCc1nnc(NC(=O)c2cccc(C(=O)Nc3nnc(CC)s3)n2)s1	active: 0.178 µM	
CCOc1cc(CNCCc2ccc(S(N)(=O)=O)cc2)ccc1OCc1ccc(Cl)cc1	inconclusive [inhibitor, single point]	
O=C(CSc1nc2ccccc2[nH]1)NC(=O)NCc1ccco1	inconclusive [activator, single point]	
COc1ccc(C(=O)Nc2ccc(C3=NNC(=O)CC3C)cc2NC(=O)c2ccc(OC)cc2)cc1 (centres undefined)	inconclusive [activator, single point]	
Cc1ccn2cc(-c3ccc(O)c(O)c3)nc2c1	active: 12.6 µM	
Clc1ccc(-c2nnc(Sc3nc4ccccc4o3)c3ccccc23)cc1	inconclusive [inhibitor, single point]	
